Read counts are not given, so values of variants with three or more changes are uncertain.

The chains are these.
B1: CPEB3 Ribozyme (parent)
chain: UAACAGGGGGCCACAGCAGAAGCGUUCACGUCGCAGCCCCUGUCAGAUUCUGGUGAAUCUGCGAAUUCUGCUGUAUAUCUC

The series covers variants of B1. Nature of the series: self-cleavage, relative activity (ratio to wild type); higher = more cleavage; in vitro, sequencing. In a few lines:
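For each CPEB3 ribozyme variant, relative activity is its cleaved/total read fraction divided by the unmutated ribozyme's. Barcoded error-prone PCR libraries were transcribed by T7 RNA polymerase (5 hours, 37°C) and held in DNase I for 15 min before an EDTA stop, with cleavage occurring throughout. Template-switching reverse transcription and Illumina sequencing were used to read the RNAs. A 5-read minimum applied, and results are the mean of three batches.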
With A2G A64U U67A, the self-cleavage was 0.18.

On to A2G A13G A15G U67C G70U, for which the self-cleavage was 0.04. Consider U1G G30A A56G A57G, for which the self-cleavage worked out at 0.19.

In the case of A2G A5U A15G U41C G55C A56G, the self-cleavage amounted to 0.49. The value for U1C U49C U66A was 0.27; that for U1G G9C U31C A35U A56G was 0.06; that for U1G C14U A35G U58C A64U G70C U74C was 0.5.

In the case of A2C C11G U25C U41A U78A, the self-cleavage was found to be 0.52. A2G A3G A15U G33A U41A: the self-cleavage was 0.34. Take A2G A5C A21G: the self-cleavage worked out at 0.6. Take A2G A13U G70C: the self-cleavage amounted to 0.16. A2G A15G A20G U49C: the self-cleavage was 0.33. For A2G C4U A13G A20U U54C U78C U80C, the self-cleavage amounted to 0.42. The same measure for U1C U43A A64U: 0.32. Take A2G A20U U54A: the self-cleavage worked out at 0.4. Turning to U1G G9A G33A A56G U72A U78C, the self-cleavage stood at 0.04. A2G A13G A47G A56U: the self-cleavage came to 0.08. The value for A2G A5U G10U A56G U58A U60C was 0.03; that for U1C U41A U49C C50U A56G was 0.16; that for U1G A3G A18G A56G U60A was 0.43. Turning to U1G U26C A28U U31C U43C A57G C68U, the self-cleavage is 0.29. Regarding A2G A28U U51C U58A, the self-cleavage is 0.06. The same measure for A2G A21G A45U: 0.24; for A2G A21U U31C C34G U41C A65G C68U: 0.02. As for A2C A21G A57G, the self-cleavage was determined as 0.37. For the variant A2C A21G U41A U51A U67A U69C U72A, the self-cleavage was 0.12.

Turning to U1C U49C A75G A77G, the self-cleavage came to 0.07. A2G A35C U66C: the self-cleavage is 0.35.

As for A2G A3G C11U G46A A57G U60C, the self-cleavage was found to be 0.1.

A2G A3G C11U A13U U25C U41C: the self-cleavage stood at 0.06. Turning to A2G A3G A5U U54C U78A, the self-cleavage was 1.16. For the variant A2G A18U U41A G55U, the self-cleavage came to 0.1. The same measure for A2G A15G A65G U66C A75G: 0.21; for A2G A15G U31A U43A: 0.62; for A2G A15G A35G U54C U69A: 0.52. The same measure for U1C U26G C34U G53A A56G A64U C81U: 0.04; for U1G A35G A56G U58C A64U U74C: 0.51; for A2C A5C G8U G22A U41C G73A: 0.04. For A2G A15U C17A A75U, the self-cleavage is 0.49. For the variant A2G A21G U31A C34U, the self-cleavage turned out to be 0.07. Regarding A2C A28U G33U, the self-cleavage turned out to be 0.1. Consider A2C G24A U69C, for which the self-cleavage was 0.1. The same measure for A2G A20C C29U U31C U48C U69C: 0.05. As for A2G A21G A64G A77G, the self-cleavage turned out to be 0.23. For the variant U1C U26C A35U C50U, the self-cleavage was 0.18. As for U1C U26C U60C U67A A75U A77U, the self-cleavage came out at 0.37. Take A2G A3G A15G G53A U67G U78C: the self-cleavage turned out to be 0.39.

On to U1C U43A A56G, for which the self-cleavage turned out to be 0.3.

Turning to A2G A18G A28G C29U, the self-cleavage was 0.38.

As to U1G G10A A47G U51A, the self-cleavage was 0.31. Consider A2G A18G C44U U49A U69A, for which the self-cleavage was determined as 0.25. Take A2G A15G U26A A56G: the self-cleavage was found to be 0.36. The same measure for A2G A5G A45C A64G U69C: 0.19; for A2G A47U U72G U76A A77C: 0.1. For the variant A2G A18U U54A, the self-cleavage worked out at 0.57. As to U1G C4A U41C A47G U54A U60A G63A, the self-cleavage came to 0.48. In the case of A2C A5U A35G A65U U72C U74C, the self-cleavage worked out at 0.63. As to A2G A5G A28U U43C U66C A77U, the self-cleavage came out at 0.07. For A2C C11A U41A U78A, the self-cleavage came to 0.26.

Take A2G A13G G63A A64C G70U U72C: the self-cleavage worked out at 0.12. The value for A2C A5G U25C A28U C62U was 0.43; that for A2G A35U A47G A64U U74A A75G was 0.08; that for A2C A35G U58C was 0.74.

For the variant U1C U41C C71A A77G U80C, the self-cleavage worked out at 0.2.

In the case of A2G A35G U41C, the self-cleavage worked out at 1.22. A2G A18U U58C: the self-cleavage was 0.18.

With A2G A35G U49C U72C, the self-cleavage turned out to be 0.27.

With U1C U51A A56U A75G, the self-cleavage was 0.23. For U1C U41A A64G U67A A75G, the self-cleavage stood at 0.37.

In the case of U1C U58C U69C U72G, the self-cleavage amounted to 0.42.

With A2G A21G U26C A28G A64G, the self-cleavage is 0.32.

In the case of A2G A65G U72C, the self-cleavage stood at 0.12. With A2G A20C A35U G42U U58A U69C U80C, the self-cleavage is 0.05. The same measure for A2G A15G A47U U60C G61A: 0.11; for A2G A3G C62A: 0.39; for A2G A28G U48C A56G U66C: 0.19. For the variant A2G A3G A18U, the self-cleavage was 0.41. For A2G A3G G8A C11A U25A U74C, the self-cleavage came out at 0.07. With A2G A45G A56G U69A, the self-cleavage came to 0.31. In the case of A2G A21G U26A G33A U51C U67G U69A, the self-cleavage was 0.1.

As to U1C U41C U49A A56U, the self-cleavage turned out to be 1.12. Consider A2G A47U A56G U69A, for which the self-cleavage came out at 0.08.

Turning to U1C U48C U49C, the self-cleavage was 0.12.

In the case of U1C U41C A47G, the self-cleavage came to 0.87.
